We go through 89 molecules from PubChem BioAssay AID463173 (ICCB-Longwood Screening Facility, Harvard Medical School, 2010).

Molecules are shown by their SMILES. Screen size: about 52,000 compounds; about 1,700 (3.3%) were called active. Rule as the data show it: active = survival mostly below about 52% (no sharp cut-off); inactive = mostly above about 56%. Some of the results follow.

The experiment relates to Wild type. The experiment is described as follows: growth inhibition of S. aureus wild type versus tarO mutant, primary screen, teichoic acid synthesis inhibitors, RN4220, OD600 (AID 463173). The conditions noted are these: S. aureus RN4220 wild type/DeltatarO growth, OD600, 18 h, stronger effect = lower value, screened at 18.75 µg/mL (by protocol).
Turning to `COc1ccc(C)cc1NC(=O)C(=O)NCCc1sc(-c2cccc(C)c2)nc1C`, the survival is inactive: 71%.

Take `Cc1cc(C)cc(NC(=O)Cc2csc(COc3cccc(C)c3)n2)c1`: the survival was inactive: 91%. For `CCn1c(SCC(N)=O)nc2ccccc2c1=O`, the survival was inactive: 96%.

Turning to `Cc1ccccc1C(=O)Nc1ccc(S(=O)(=O)N2CCC(c3nc4ccccc4s3)CC2)cc1`, the survival was inactive: 61%. For `O=C(O)CSc1nc2ccccc2c(=O)n1-c1ccccc1` the value was inactive: 109%.

Turning to `CCCNC(=O)C1CCC(Cn2c(=O)c3sccc3n(CC(=O)NCc3ccccc3)c2=O)CC1` (centres undefined), the survival was inactive: 88%. For `CCOC(=O)c1ccc(NC(=O)CCCc2nc(-c3cc(OC)c(OC)c(OC)c3)no2)cc1`, the survival was inactive: 68%. As for `O=C(NCc1ccccc1F)C1CCCN(C(=O)N2CCOc3ccccc32)C1` (centres undefined), the survival was inactive: 85%. In the case of `O=C(CN1C=NS(=O)(=O)c2ccccc21)Nc1ccccc1F` it was inactive: 73%; in that of `CCOc1ccc(S(=O)(=O)N(CC(=O)Nc2ccc(OC)cc2OC)c2ccccc2)cc1`, inactive: 140%; in that of `Cc1nn(CCCC(=O)NCc2ccccc2Br)c(=O)c2c1sc1ccccc12`, inactive: 85%.

In the case of `O=C(/C=C/N1CCOCC1)c1cc2ccccc2o1`, the survival is inactive: 117%. For `Cc1cccc2nc(Cn3c(=O)n(-c4ccc(Cl)cc4)c(=O)c4c5c(sc43)CCC5)cc(=O)n12` the value was inactive: 121%; for `CCOc1ccc(C(=O)Nc2cccc(C(=O)OCc3cc(=O)n4cc(C)sc4n3)c2)cc1`, inactive: 81%; for `COc1ccc(S(=O)(=O)N(CC(=O)N2CCc3ccccc3C2)c2ccc(C)cc2)cc1`, inactive: 66%. As for `COc1ccc(OC)c(CNS(=O)(=O)c2ccc3c(c2)oc(=O)n3C)c1`, the survival is inactive: 83%. For `COc1ccc(N2C(=O)CS(=O)(=O)C23C(=O)N(Cc2ccccc2F)c2ccccc23)cc1Cl` (centres undefined) the value was inactive: 83%; for `COc1ccc(Br)cc1CNC(=O)c1cc(=O)[nH]c2ccc(S(=O)(=O)N3CCCCC3C)cc12` (centres undefined), inactive: 105%; for `CCn1cc(C(=O)NCCc2ccccc2)c(=O)c2cc(S(=O)(=O)N3CCCCCC3)ccc21`, inactive: 73%. For `Cc1nn(C(C)C(=O)N2CCN(c3ccc(F)cc3)CC2)c(=O)c2c1sc1ccccc12` (centres undefined) the value was inactive: 104%; for `CC(=O)N1c2ccc(S(=O)(=O)N3CCC(C(=O)Nc4cccc(Cl)c4C)CC3)cc2CC1C` (centres undefined), inactive: 89%; for `CC(C)(C)NC(=O)CCSc1nnc(-c2ccccc2)o1`, inactive: 100%.

As for `Cc1cccc(Cn2cc(S(=O)(=O)c3ccccc3)c(=O)c3cc(F)c(N4CCOCC4)cc32)c1`, the survival was inactive: 71%.

On to `CC(C)(C)C(=O)C1=C(O)C(=O)N(Cc2ccccc2)C1c1cccnc1` (centres undefined), for which the survival is inactive: 121%.

Regarding `CCOC(=O)Cn1c(=O)n(-c2cccc(Cl)c2)c2nc(-c3ccccc3Cl)nc(C(N)=O)c21`, the survival was inactive: 89%. In the case of `Cc1ccc2c(CC(=O)Nc3ccc(S(=O)(=O)N4CCCCC4C)cc3)coc2c1C` (centres undefined) it was inactive: 86%; in that of `CCc1ccc2ncc3c(-c4ccc(F)cc4)nn(CC(=O)NC4CCCCC4)c3c2c1`, inactive: 124%; in that of `CN(C)c1ccc(CNC(=O)Cc2ccc(NC(=O)N3CCCCc4ccccc43)cc2)cc1`, inactive: 92%. For `COc1ccc(N2CCN(CCCNC(=O)c3nnc(Cc4ccc(F)cc4)o3)CC2)cc1`, the survival was inactive: 116%. Regarding `Cc1ccccc1OC(=O)c1nc(SCc2ccccc2F)ncc1Cl`, the survival is inactive: 116%. In the case of `COc1ccc(N2CCN(C(=O)c3cc4c(=O)oc5ccc(C)cc5c4s3)CC2)cc1` it was inactive: 120%. In the case of `O=C1/C(=C\c2ccco2)SC(=S)N1Cc1ccccc1` it was inactive: 116%; in that of `Cc1c(C)n(Cc2ccccc2)c2ccc(C(=O)NCC(C)c3ccccc3)cc12` (centres undefined), inactive: 70%.

As to `Cc1ccc(N2CCN(S(=O)(=O)c3nnc(NC(=O)c4ccccc4)s3)CC2)cc1`, the survival is inactive: 80%. In the case of `CCOC(=O)CNC(=O)c1cc2c(=O)oc3ccccc3c2s1` it was inactive: 146%; in that of `CCOc1ccc(CCNC(=O)c2ccc(-n3c(C)cc4c3CCCC4)cc2)cc1OCC`, inactive: 76%. In the case of `c1ccc(-c2nc3ccccn3c2NC2CCCC2)nc1` it was inactive: 27%; in that of `O=C(Nc1ccccc1C(=O)OCc1cc(=O)n2nc(C3CC3)sc2n1)c1ccc(Cl)cc1`, inactive: 77%; in that of `Cc1ccc(C)c(N2CCN(c3nc4ccc(C)cc4nc3-n3nc(C)cc3C)CC2)c1`, inactive: 86%. Consider `CCOCCc1nnc(NC(=O)C(=O)c2cc(C)n(-c3ccc(C)c(C)c3)c2C)s1`, for which the survival is inactive: 83%. In the case of `O=C(Cn1cnc2nc3c(cc2c1=O)CCCC3)Nc1ccc(F)cc1Cl` it was inactive: 72%; in that of `Cc1cc(C)n(CCC(=O)Nc2ccc(Cl)cc2)n1`, inactive: 72%; in that of `CCOc1ccc(N2CC(NC(=O)c3ccc4c(c3)OCO4)CC2=O)cc1` (centres undefined), inactive: 65%. Consider `CCCCNc1nc2c(S(=O)(=O)c3ccc(C)cc3)nnn2c2ccsc12`, for which the survival is inactive: 113%. For `COc1ccccc1CNC(=O)CSc1nc(-c2ccc(OC)c(OC)c2)cc(C(F)(F)F)n1` the value was inactive: 61%; for `CCOc1ccc(CCNC(=O)c2ccc3c(c2)N(Cc2ccc(F)cc2)CCS3)cc1`, inactive: 78%; for `O=C(NCC(c1cccs1)S(=O)(=O)c1cccs1)c1ccc(F)c(F)c1` (centres undefined), inactive: 68%.

For the molecule `Cc1ccc(N2CC(NC(=O)c3ccc(S(=O)(=O)N(C)C)cc3)CC2=O)cc1C` (centres undefined), the survival was inactive: 81%. As for `CCC(C)NC(=O)c1ccc2c(c1)sc1nc(-c3ccc(OC)cc3)cn12` (centres undefined), the survival was inactive: 77%. For `COC(=O)c1sccc1S(=O)(=O)N(CC(=O)Nc1cc(C)ccc1C)c1ccc(C)c(C)c1` the value was inactive: 78%; for `C=CCc1c(C)nc(SC)nc1Nc1ccc(OC)cc1`, inactive: 114%.

As to `O=C(CSc1nc2c([nH]c3ccccc32)c(=O)n1-c1cccc(Cl)c1)N1CCCC1`, the survival was inactive: 63%. In the case of `O=C(Cn1cc(S(=O)(=O)Cc2cccc(Cl)c2)c2ccccc21)Nc1ccccc1C(F)(F)F` it was inactive: 78%; in that of `CCCCc1ccc(-n2nc3ccc(NC(=O)c4cc5ccccc5o4)cc3n2)cc1`, inactive: 75%. For `CC(C)Cc1cc(C(=O)NCc2ccc(Cl)cc2)no1` the value was inactive: 112%; for `CCOC(=O)C1=C(c2ccccc2)N=C2SCC(=O)N2C1c1ccc(O)c(OC)c1` (centres undefined), inactive: 104%. For `CCc1ccc2oc(-c3ccc(C)c(NC(=O)c4cc([N+](=O)[O-])ccc4N4CCOCC4)c3)nc2c1` the value was inactive: 80%; for `COC(=O)CN1C(=O)CSc2ccc(S(=O)(=O)Nc3ccc(F)c(Cl)c3)cc21`, inactive: 88%. For the molecule `CCC(CC)C(=O)N1c2ccccc2C(C)(c2ccccc2)CC1(C)C` (centres undefined), the survival was active: -2%. For `CSc1ncc(C(=O)Nc2cc(C)cc(C)c2)c(-c2ccccc2)n1` the value was inactive: 73%. For `COc1ccc(-n2c(=O)c3c4c(sc3n(Cc3ccc(F)cc3)c2=O)CN(C(C)=O)CC4)c(OC)c1` the value was inactive: 150%; for `COc1ccc(C(=O)NCCSc2c[nH]c3ccccc23)cc1OC`, inactive: 94%; for `Clc1ccc(CSc2ccc(-c3cccs3)nn2)cc1`, inactive: 114%. In the case of `Cc1cc(C)c(Cn2c(=O)n(CCC(=O)NCCc3ccccc3)c(=O)c3ccccc32)c(C)c1` it was inactive: 74%; in that of `CN1CCN(C(CNC(=O)c2ccc(F)cc2)c2ccc3c(c2)OCO3)CC1` (centres undefined), inactive: 70%; in that of `COc1ccc(OC)c(CCNC(=O)c2c(C)oc3ncn(CC(C)C)c(=O)c23)c1`, inactive: 83%.

On to `CC(=O)N1CCc2c(sc3c2c(=O)n(Cc2ccccc2)c(=O)n3Cc2ccc(Cl)cc2)C1`, for which the survival is inactive: 108%. For `O=C(O)c1sc(Nc2ccccc2)nc1-c1ccccc1` the value was inactive: 141%. For `CCOCCCn1c(SCC(=O)Nc2ccccc2CC)nc2ccccc2c1=O` the value was inactive: 89%. As for `CCCCCN1N=C(C)CC1=O`, the survival is inactive: 91%. In the case of `CC(=O)Nc1ccc(C(=O)CSc2nc3ccccc3n2C)cc1` it was inactive: 117%; in that of `CCOC(=O)Cn1c(=O)oc2cc(S(=O)(=O)N3CCN(c4cccc(Cl)c4)CC3)ccc21`, inactive: 88%; in that of `Cc1ccc(NC(=O)c2cccc3c(=O)c4c([nH]c23)CCCC4)c(C)c1`, inactive: 66%. `N#Cc1cc2c(ccc3ccccc32)oc1=N`: the survival is inactive: 109%. For `O=C(CNc1ccccc1Cl)N/N=C1\CCCc2ccccc21` the value was inactive: 105%; for `CCN(CC)c1ccc(C(=O)N2CCc3c([nH]c4ccccc34)C2c2ccc(F)cc2)cc1` (centres undefined), inactive: 77%. In the case of `CCOC(=O)C1=NNC2C(=O)N(c3cc(Cl)ccc3OC)C(=O)C12` (centres undefined) it was inactive: 110%; in that of `CCOC(=O)c1sc2ccccc2c1S(=O)(=O)Nc1ccc(OC)c(Cl)c1`, inactive: 72%. For `CCOc1ccc(NC(=O)Nc2nnc(N3CCCCC3C)s2)cc1` (centres undefined) the value was inactive: 73%; for `Cc1ccc(NC(=O)Nc2nnc(SCC(=O)N(C(C)C)C(C)C)s2)cc1`, inactive: 70%. Consider `COc1cccc(CNC(=O)c2c(C)nn(-c3ccc(F)cc3)c2-n2cccc2)c1`, for which the survival is inactive: 75%. For `Cc1ccccc1Cn1nnc2sc3c(c2c1=O)CCCC3` the value was active: 0%; for `CCOC(=O)c1c(NC(=O)Nc2ccc(F)cc2)sc(C(=O)N(C)C)c1C`, inactive: 74%; for `CCOC(=O)c1cc2c(=O)n3ccccc3nc2n(CC2CCCO2)c1=NC(=O)c1cccc(C)c1` (centres undefined), inactive: 75%.

For the molecule `O=C(COc1ccccc1F)Nc1nnc(SCc2cc(=O)n3ccccc3n2)s1`, the survival was inactive: 66%. In the case of `COc1ccc(CCNC(=O)c2ccc3c(c2)N(Cc2ccccc2Cl)C(=O)c2ccccc2S3)cc1OC` it was inactive: 83%; in that of `COc1ccc(-c2cccc(NS(=O)(=O)c3cc(C(F)(F)F)ccc3Cl)c2)nn1`, inactive: 59%; in that of `CCc1nc2ccc(C(=O)NCc3ccccc3C)cc2nc1CC`, inactive: 77%.

Consider `O=c1c(NCc2cccs2)nccn1-c1ccccc1`, for which the survival is inactive: 74%.
